The target in this test is GST-tagged vimentin. The experiment in a line: pull-down.

B1: His-tagged Rab7a wt (natural protein)
chain: not shown
With B1, the binding result is “binds”.

The values are drawn from paper PMC3787733 (Biochimica et Biophysica Acta, 2013).
